Results as given in the supplement of paper PMC4723716.
Whole data set: some 3,600 compounds, median “viability index relative to DMSO control” near 0.81, cut for the lowest 2% near 0.13. The list shows a part of the results.
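Further: 384-well serum-free SaLSSA: MitoTracker Red CMXRos staining with saponin lysis, high-content imaging, treated-well particle count divided by plate-mean count of DMSO wells.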

What follows are compounds tested on Plasmodium falciparum NF54 stage V gametocytes (assay: viability index relative to DMSO control (fraction); higher = less gametocyte killing). Conditions: 1.25 µM, incubation time: 72 h.
Work on `CN(C)CCCNc1cc(-c2ccccc2)nc2ccccc12` yielded a viability index of 0.913. `CCN1CCN(c2cc(C)c3cc(NC(=O)C=Cc4ccccc4Cl)ccc3n2)CC1` was tested, and the viability index was 0.714. Work on `COCCCNC(=O)C=Cc1ccc(C(C)C)cc1` yielded a viability index of 0.976. `COC(=O)CNC(c1ccccc1Cl)c1cc(Br)ccc1NS(=O)(=O)c1ccc(C)cc1` (centres undefined) showed a viability index of 0.736. Work on `CCc1ccc2c(c1)C1(NN=C(c3ccc(C)cc3)S1)C(=O)N2` (centres undefined) yielded a viability index of 0.127. For `CCOC(=O)C1=C(C)N=c2sc(=Cc3cccc(OCc4cccc5ccccc45)c3)c(=O)n2C1c1ccc(OC)cc1OC` (centres undefined), the viability index was 0.924. `Cc1ccc(C(=O)NCCNC(=O)CN2CCOCC2)cc1` showed a viability index of 1.12. In the case of `CCC(C)NC(=O)c1c[nH]c2ccc(S(=O)(=O)N(C)c3cc(C)ccc3C)cc2c1=O` (centres undefined), the viability index is reported as 0.913. For `CCOC(=O)c1cc(-c2ccccc2)n(CCC(=O)Nc2ccccc2N2CCN(C)CC2)c1C`, the viability index was 0.996. With `Cc1ccc(-c2nc3cc(NC(=O)c4ccc([N+](=O)[O-])o4)ccc3o2)cc1Br` the viability index was 0.0755. In the case of `Cc1[nH]c(=O)[nH]c(=O)c1S(=O)(=O)Nc1ccc2oc(-c3ccncc3)nc2c1`, the viability index is reported as 0.779. `O=C1C(NC2CCCCC2)=C(N2CCOCC2)C(=O)c2ccccc21` was tested, and the viability index was 0.892. `Cc1ccc(CSCc2ccc(C(=O)NC3CC3)o2)cc1` gave a viability index of 0.861. In the case of `O=C(NCSC1=NCCS1)c1ccccc1`, the viability index is reported as 0.996. In the case of `CCc1ccc(NC(=O)c2ccc(F)c(S(=O)(=O)NC3CCCC(C)C3C)c2)cc1` (centres undefined), the viability index is reported as 0.697. In the case of `Fc1ccc(-c2c[n+](Cc3ccc(Cl)cc3Cl)c3n2CCC3)cc1`, the viability index is reported as 0.816. For `Oc1c2c(nc3cc(-c4ccc(Cl)cc4)nn13)CCCC2`, the viability index was 0.583. Compound `COc1ccc(S(=O)(=O)N=C2C=C(Nc3ccccc3)C(=O)c3ccccc32)cc1` has a viability index of 0.232. Work on `CC1=C(C(=O)OC(C)C)C(c2ccc([N+](=O)[O-])cc2)C2=C(CC(c3ccc(Cl)cc3)CC2=O)N1` (centres undefined) yielded a viability index of 0.871. `COc1ccc(S(=O)(=O)N=C2C=C(Nc3ccc(O)cc3)C(=O)c3ccccc32)cc1` gave a viability index of 0.228. In the case of `O=C(c1ccccc1)N1CCc2nc(Cc3ccc(F)cc3Cl)sc2C1`, the viability index is reported as 0.708. `CN1CCCC1CCNCc1cc(-c2ccnc3cc(Cl)ccc23)ccc1O` (centres undefined) was tested, and the viability index was 0.75. `CC12CCC(C(=O)N(CC(O)Cn3c4ccc(Cl)cc4c4cc(Cl)ccc43)C1=O)C2(C)C` (centres undefined) showed a viability index of 0.377. In the case of `CCOC(=O)c1cccc(NC(=O)CCn2nc(C)c3c(C)n(-c4ccccc4)nc3c2=O)c1`, the viability index is reported as 0.739. `COc1ccc(CCn2c(SCC(=O)N3CCN(c4ccccc4OC)CC3)nc3ccccc3c2=O)cc1OC` showed a viability index of 0.747. Compound `Cc1ccc(Nc2nc(NCCO)c3ccccc3n2)cc1C` has a viability index of 0.601. Compound `CCC(CC)=NNC(=O)C(=O)NC1CCCCC1` has a viability index of 1.13. `Cc1nc(N(C)c2ccc(C(C)C)cc2)c2c(C)c(C(=O)Nc3cc(C)on3)sc2n1` showed a viability index of 0.732. `O=C1C(NC2CCCC2)=C(N2CCOCC2)C(=O)c2ccccc21` showed a viability index of 1.22. `CC(C)CCN1C(=O)N(CCN(C)C)C(=O)C12CCN(Cc1ccc(O)cc1)CC2` showed a viability index of 0.971. `COc1ccccc1C=CC1=NC(=Cc2ccc(SC)cc2)C(=O)O1` was tested, and the viability index was 0.789. `Cc1ccc(C2C3=C(CC(C)(C)CC3=O)N(Cc3ccc4c(c3)OCO4)C3=C2C(=O)CC(C)(C)C3)cc1` was tested, and the viability index was 0.811. `CCOc1ccc(C=C(C#N)c2nc3ccccc3[nH]2)cc1OC` showed a viability index of 0.837. `CC(NCc1ccccc1)c1cc(Cl)ccc1O` (centres undefined) showed a viability index of 0.625. Work on `COc1ccc(C(=O)N2c3cc(C)ccc3C(Nc3ccc(C)cc3)CC2C)cc1` (centres undefined) yielded a viability index of 1.02. In the case of `COc1cc(OC)c(NC(=O)c2ccc(N3CC4CC(C3)c3cccc(=O)n3C4)c([N+](=O)[O-])c2)cc1Cl` (centres undefined), the viability index is reported as 0.905. In the case of `Fc1ccc2[nH]c3c(N4CCN(C(c5ccccc5)c5ccccc5)CC4)ncnc3c2c1`, the viability index is reported as 0.623. In the case of `O=C(C=Cc1ccccc1)NNC(=O)c1cccnc1`, the viability index is reported as 1.03. `COc1ccc(C2(C(=O)NCc3ccccc3Cl)CCCC2)cc1OC` gave a viability index of 0.785. In the case of `CCCn1c(=O)c(C(=O)NCC[N+](CC)(CC)CC)c(O)c2ccccc21`, the viability index is reported as 0.688. Compound `Oc1ccc(-c2cncnc2)cc1CNC1CCN(Cc2ccccc2)CC1` has a viability index of 1. Work on `O=C1CN(C(=O)CCC2CCCC2)C(c2ccc(F)cc2)c2cc(F)ccc2N1` (centres undefined) yielded a viability index of 0.589. For `COC(=O)c1ccc(N2C(=O)C3C(C2=O)C2(c4ccccc4)C(=O)C3(c3ccccc3)C(c3ccc(OC)cc3)=C2c2ccc(OC)cc2)cc1` (centres undefined), the viability index was 0.584. `CCOc1ccccc1NC(=O)Nc1ccc2nc(N3CCN(C)CC3)cc(C)c2c1` was tested, and the viability index was 0.787. `c1ccc(-c2c3c(cc4ccccc24)C[N+]2(CCCC2)C3)cc1` showed a viability index of 0.985. With `CCN1C(=Cc2sc3ccccc3[n+]2C)C=Cc2cccc(C)c21` the viability index was 0.305. In the case of `CCOC(=O)c1nnn(-c2nonc2N)c1-c1ccc(OC)cc1`, the viability index is reported as 0.838. `COC(=O)c1ccccc1NC(=O)CN(C)c1nc(-c2ccc(OC)cc2)no1` gave a viability index of 1.21. `COc1cccc(CNc2cc(C(=O)NCCNC(C)=O)cc(S(=O)(=O)N(C)C)c2)c1OC` showed a viability index of 1.32. `CCCOC(=O)C1=C(C)NC2=C(C(=O)CC(c3ccc(Cl)cc3)C2)C1c1ccc(Br)cc1` (centres undefined) was tested, and the viability index was 0.536. `C(=NNc1nc2ccccc2[nH]1)c1ccccc1` showed a viability index of 0.71. `COC(=O)c1ccc(C2C3=C(CC(c4ccc(OC)cc4)CC3=O)Nc3ccccc3N2C(=O)c2ccccc2)cc1` (centres undefined) gave a viability index of 0.679. `O=C(O)CC/C(=C1/C=C(c2ccc(Cl)cc2)NC1=O)c1ccc(Cl)cc1` showed a viability index of 0.682. For `Cc1cccc(NC(=S)NC2CC3CCCC(C2)N3CCc2ccccc2)c1` (centres undefined), the viability index was 0.888. In the case of `O=C(Cn1c2ccccc2c(=O)c2cc([N+](=O)[O-])ccc21)Nc1ccc(F)c(Cl)c1`, the viability index is reported as 0.776. With `CCCN(CCC)C(=O)c1c[nH]c2ccc(S(=O)(=O)N(C)c3ccc(F)cc3)cc2c1=O` the viability index was 1.25. With `O=C1CC(=O)Nc2cc(S(=O)(=O)NC3CCCCCCC3)ccc2N1` the viability index was 0.938. `COc1ccc(N(CC(=O)NCCc2ccc(F)cc2)S(=O)(=O)c2ccccc2)cc1` showed a viability index of 1.05. With `Brc1ccc2c(c1)c1ccccc1n2CC1CO1` (centres undefined) the viability index was 0.71. In the case of `NC(=S)NN=Cc1cc([N+](=O)[O-])ccc1O`, the viability index is reported as 0.176. Compound `Cc1ccc2ccc3ccc(C)nc3c2n1` has a viability index of 0.0302. With `CSc1nc2nc(C)c(Cc3cccc(F)c3)c(C)n2n1` the viability index was 0.877. Work on `COc1cccc2cc(C(=O)Nc3cccc(C(F)(F)F)c3)c(=O)oc12` yielded a viability index of 0.669. `O=[N+]([O-])c1cccc2c1nnn2C12CC3CC(CC(O)(C3)C1)C2` was tested, and the viability index was 0.859. Compound `CCCCCCCCCC[n+]1c(C)n(CC)c2cc(Cl)c(Cl)cc21` has a viability index of 0.559. `COc1ccc(OC)c(-c2ccc(O)c(CNCCCN(C)C)c2)c1` gave a viability index of 0.74. Work on `Cc1ccc(Cn2c(N3CCC(C(=O)NCc4ccc(F)cc4)CC3)nc3ccccc32)cc1` yielded a viability index of 0.55. For `Cc1cccc(NC(=O)C2C3C=CC4(O3)C2C(=O)N(CC2COc3ccccc3O2)C4C(=O)NC2CCCC(C)C2C)c1` (centres undefined), the viability index was 1.33. In the case of `O=C(O)CCCCCNc1ncnc2sc3c(c12)CCCC3`, the viability index is reported as 0.703. Compound `COc1ccc(-c2cnnc(NN=Cc3ccc([N+](=O)[O-])o3)n2)cc1` has a viability index of 0.0154. For `CC[n+]1c(C=CN2CCCc3ccccc32)ccc2ccccc21`, the viability index was 0.54. `CCN(CC)CCN(Cc1cc2c(C)cc(C)cc2[nH]c1=O)C(=S)NCCCN(C)C` gave a viability index of 0.864. `c1ccc2c(NCCc3c[nH]c4ccccc34)c3ccccc3nc2c1` was tested, and the viability index was 0.527. `O=C(Nc1ccc(-n2cccn2)cc1)C1CCN(Cc2nc3c(s2)CCCC3)CC1` was tested, and the viability index was 0.942. For `O=C(Nc1nc(-c2ccccn2)cs1)c1ccc(Oc2ccc(C(=O)Nc3nc(-c4ccccn4)cs3)cc2)cc1`, the viability index was 0.00826. Compound `Cc1ccc(S(=O)(=O)Oc2ccc(C=NN=C(N)N)cc2)cc1` has a viability index of 0.452. `Cc1ccc(CNC(=N)Nc2nc(C)cc(C)n2)cc1` was tested, and the viability index was 0.664. In the case of `CCOC(=O)c1c(NC(=O)CSc2nnc(CNC(=O)c3cccc(OC)c3)n2C2CCCCC2)sc2c1CCCC2`, the viability index is reported as 0.78. `N=c1c2c(n(Cc3ccccc3Cl)c3c1CCC3)CCCC2` gave a viability index of 0.688. `Cc1cc(C)n(-c2ccc(NC(=O)C3CCN(Cc4cc(C)c(C)o4)CC3)cc2)n1` gave a viability index of 0.926. `CCc1ccc(-n2nnc(C(=O)Nc3ccccc3Cl)c2C)cc1` was tested, and the viability index was 1.04. Work on `CC1(C)CC(NC(=O)Cc2ccc(Cl)cc2)CC(C)(C)N1` yielded a viability index of 0.928. `O=C(Nc1ccc(-c2cc(-c3ccccc3)nc(-c3ccc(NC(=O)c4cccc([N+](=O)[O-])c4)cc3)n2)cc1)c1cccc([N+](=O)[O-])c1` showed a viability index of 0.693. `CCCC1=NN(c2nc3ccccc3s2)C(=O)C1` was tested, and the viability index was 1.21. In the case of `Cc1ccc(CNC(=O)c2cc3sc(Cl)cc3n2C)cc1`, the viability index is reported as 0.884. Work on `COc1ccc(C2CC(=O)C3=C(C2)NC(C)=C(C(=O)OC(C)C)C3c2ccc(F)cc2)cc1` (centres undefined) yielded a viability index of 0.472. `COc1cc(NC(=O)Cn2c3ccccc3c(=O)c3ccccc32)cc(OC)c1OC` gave a viability index of 0.317. With `CN(C)CCCNc1ncnc2c1[nH]c1ccccc12` the viability index was 1.12. Work on `CCCCCCCC(O)(c1ccc(OCC)cc1)C(CN1CCCCC1)c1ccccc1` (centres undefined) yielded a viability index of 1.33.
